Results taken from PubChem BioAssay AID1240 (Sanford-Burnham Center for Chemical Genomics, 2008).
In all, about 50,000 compounds went through this assay and about 800 (1.6%) showed an effect of 50% or more. This is one part of the list.

Target: Bcl-2-like protein 10 (Homo sapiens) (UniProt Q9HD36)
Experiment: Phenotype converters, Bcl-B/TR3 peptide binding displacement, primary biochemical FP (AID 1240);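 further: 0% = Bcl-B with tracer peptide and DMSO and 100% = tracer peptide lacking Bcl-B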
Details: GST-Bcl-B / FITC-TR3 peptide fluorescence polarization; stronger effect = higher value; compound at 3.75 mg/L

Sequence of UniProt Q9HD36 (Q9HD36 whole entry, looked up): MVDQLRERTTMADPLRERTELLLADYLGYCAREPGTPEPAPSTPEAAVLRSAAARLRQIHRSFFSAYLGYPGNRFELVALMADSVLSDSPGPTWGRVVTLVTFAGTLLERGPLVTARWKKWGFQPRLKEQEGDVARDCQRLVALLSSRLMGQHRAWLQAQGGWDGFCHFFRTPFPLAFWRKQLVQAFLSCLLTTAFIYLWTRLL

Compound | displacement
O=C1NC(=S)NC(=O)C1=Cc1cccc(OS(=O)(=O)c2ccc3ccccc3c2)c1 | 3.4%
O=[N+]([O-])c1cc(Cl)ccc1N1CCN(Cc2ccccc2)CC1 | -10.7%
Cn1c(O)c(C=Nc2ccc3c(c2)CCC3)c(=O)n(C)c1=O | -4.5%
O=C(CNC(=O)OCc1ccccc1)Nc1ccc(Br)cc1C(=O)c1ccccc1 | 13.1%
CCCCn1c(N)c(C(=O)OCC)c2nc3ccccc3nc21 | 16.4%
O=C(CN1C(=O)c2ccccc2C1=O)Nc1ccc(Cl)cc1C(=O)c1ccccc1 | 1.7%
CN1C(=O)C(=Cc2cn(Cc3ccc(F)cc3)c3ccccc23)C(=O)N(C)C1=O | 138%
CCN1C(=O)C(=Cc2ccc(N(CC)CC)cc2)C(=O)N(CC)C1=S | 0.3%
COc1ccc(N2C(=O)CC(=O)NC2=S)cc1 | 0.3%
CC1CN(c2ccc(C(F)(F)F)cc2[N+](=O)[O-])CCN1 (stereo not drawn) | -4.6%
O=C(CCN1CCOCC1)Nc1ccc(Br)cc1C(=O)c1ccccc1 | 15.6%
CC12CCC3C(CC=C4CC(O)CCC43CO)C1CCC2O (stereo not drawn) | -14.1%
COc1cc(/C=C(\C)[N+](=O)[O-])cc(OC)c1OC | 6.4%
CC(Cc1ccccc1)NC(=O)C(c1ccc(N)cc1)c1ccc(N)cc1 (stereo not drawn) | 42.7%
O=C(c1ccc(N2N=N2)cc1)c1ccc(N2N=N2)cc1 | -2.3%
COc1ccc(-n2c(-c3ccccc3F)nc3ccccc3c2=O)cc1 | 11.2%
CCCCSc1nnc(NC(=O)Cn2c[n+]([N-][N+](=O)[O-])cn2)s1 | 1.9%
COc1ccc(-c2nc3ccccc3c(=O)n2-c2ncccc2C)cc1 | -3%
O=C(COc1ccc2ccccc2c1)N1CCN(Cc2ccccc2C(F)(F)F)CC1 | -1.6%
O=[N+]([O-])c1ccc(N2CCOCC2)c(F)c1Br | 7.7%
O=C1NC(=O)C(=Cc2ccc(O)c(O)c2)C(=O)N1 | 13.5%
C#CC(C)(C)N1CC[C@@H](O)[C@@H]2CCC[C@@H]21 | -9.2%
O=[N+]([O-])c1ccc(N2CCN(Cc3ccccc3)CC2)c(Cl)c1 | 3.7%
CC(C)COP(C)(=S)/C(C#N)=C(\OC(=O)c1ccccc1)c1ccccc1 (stereo not drawn) | 11.4%
CCOc1ccc(-n2c(-c3ccc(OC)cc3)nc3ccccc3c2=O)cc1 | 3%

Compound | displacement
O=c1c2ccccc2nc(-c2cccs2)n1-c1ccc(Br)cc1 | -9.7%
CCC(=O)c1ccc(N2CCN(C)CC2)c(F)c1 | -20%
Cc1ccc(-n2c(/C=C3/C(=O)Nc4ccc(Br)cc43)nc3ccccc3c2=O)cc1 | 4.3%
COc1ccc(OCC(=O)Nc2ccc(Br)cc2C(=O)c2ccccc2)cc1 | -8.4%
O=C(COc1ccc(Cl)cc1)N1CCN(C2CCCCCC2)CC1 | -6%
COc1ccc(O)c(CN2CCN(Cc3ccc(F)cc3)CC2)c1 | 3%
COc1ccccc1/C=C1/C(=N\O)C2CCN1CC2 | -10.6%
Cc1ccc(-c2nc3ccccc3c(=O)n2-c2ccc(Br)cn2)cc1 | -5.2%
CC(C)c1cccc(C(C)C)c1OCCCn1ccnc1 | -3.3%
COc1ccccc1-n1c(/C=C/c2ccc3c(c2)OCO3)nc2ccccc2c1=O | -7.9%
COC(C(=O)Nc1ccc(Br)cc1C(=O)c1ccccc1Cl)c1ccccc1 (stereo not drawn) | -10.2%
O=c1c2ccccc2nc(/C=C/c2ccccc2)n1-c1cccc([N+](=O)[O-])c1 | 35.2%
CCC(C)N1CCN(Cc2cc(Br)ccc2OC)CC1 (stereo not drawn) | -24%
O=C(Nc1nc2ccccc2s1)C(Cl)(Cl)Cl | 3.5%
CCCCn1c(=O)c(C(=O)Nc2cc([N+](=O)[O-])ccc2O)c(O)c2ccccc21 | -2.9%
CN1CC2([N+](=O)[O-])CC=C(Cl)C([N+](=O)[O-])(C1)C2 (stereo not drawn) | -5%
COc1cc(C=C2C(=O)NC(=S)NC2=O)ccc1OCc1c(C)no[n+]1[O-] | 3.2%
CC(=O)c1ccc(N2CCN(C)CC2)c(F)c1 | 1.2%
CC(=O)c1ccc(NC(=O)C2C(C)(C)C2(C)C)cc1 | -3.8%
CC(C)(C)c1ccc(N2C(=O)CC(=O)NC2=O)cc1 | 3.1%
CC1=NN(c2ccccc2)C(=O)/C1=C/c1c(O)[nH]c(=S)[nH]c1=O | 0.6%
CC1(C)C(C(=O)Nc2cccc3ccccc23)C1(C)C | 3.9%
CC(C)(C)C(=O)CC(O)(c1ccccc1)C(Cl)(Cl)Cl (stereo not drawn) | -0.7%
COc1ccc(CCNCc2cccc(Cl)c2)cc1 | -15.1%
COc1cccc(CN2CCNCC2)c1OC | 15.6%

Compound | displacement
CCc1ccc(N2C(=O)CC(=O)NC2=S)cc1 | -7.8%
Cc1cccc(-n2c(C)nc3ccccc3c2=O)n1 | -13.6%
Cc1ccc(OP(=O)(O)Oc2ccc(C)cc2)cc1 | 15.7%
O=C(c1ccccc1)c1cc(Cl)ccc1NC(=O)c1nc[nH]c1C(=O)N1CCOCC1 | -5.8%
C=CCc1cc(/C=C2/C(=O)NC(=S)N(CC=C)C2=O)cc(OC)c1O | 10.6%
COc1ccc(O)c(CN2CCN(Cc3cccc(Cl)c3)CC2)c1 | 13.4%
CCC(C)c1ccc(N2C(=O)CC(=O)NC2=S)cc1 (stereo not drawn) | -6.7%
O=C(CN1CCOCC1)c1ccc(Br)cc1 | 10%
CCc1nc2ccccc2c(=O)n1-c1ccc2ccccc2c1 | -5.1%
COc1ccc(CN2CCN(C(=O)Cc3ccccc3)CC2)cc1Br | -10%
Cc1ccccc1-n1c(/C=C/c2ccccc2O)nc2ccccc2c1=O | -6.6%
COc1ccc(O)c(CN2CCN(Cc3ccc(C)cc3)CC2)c1 | -8.7%
COc1ccc(C(=O)NC(Cc2cnc[nH]2)C(=O)O)cc1 (stereo not drawn) | 17.7%
CC(=O)n1cc(C2C(=O)NC(=O)NC2=O)c2ccccc21 | -4.1%
CCN1CCN(c2ccc([N+](=O)[O-])cc2)CC1 | 3.2%
O=C1NC(=O)N(c2ccccc2)C(=O)/C1=C/C=C/c1ccccc1[N+](=O)[O-] | 12.8%
CN(C)C(=O)Oc1ccc([N+](=O)[O-])cc1 | 1.8%
C=C(C)COc1cc(C)cc2oc(=O)c3c(c12)CCC3 | 11.4%
COc1ccc(OC)c(-n2c(O)c(C=C3C=Nc4ccccc43)c(=O)[nH]c2=O)c1 | 118%
CC(C)c1ccc(N2C(=O)CC(=O)NC2=S)cc1 | -8.7%
CCCCN(CC#CCOCCC#N)CCCC | -4.6%
O=C(Nc1ccc(Cl)cc1C(=O)c1ccccc1)c1ccncc1 | 10.5%
Cc1ccc(N2C(=O)NC(=O)/C(=C\c3cn(CC(=O)O)c4ccccc34)C2=O)cc1 | 183%
